In all, about 310,000 compounds went through this assay and about 2,200 (0.71%) showed an effect of 50% or more. The effect is printed as a negative number. This is one part of the list.
Biological target: human ether-à-go-go-related gene (hERG) potassium channel (human, UniProt Q12809)
Assay: primary screen, population patch clamp on CHO cells stably expressing hERG

Sequence of human ether-à-go-go-related gene (hERG) potassium channel (Q12809 whole entry, looked up): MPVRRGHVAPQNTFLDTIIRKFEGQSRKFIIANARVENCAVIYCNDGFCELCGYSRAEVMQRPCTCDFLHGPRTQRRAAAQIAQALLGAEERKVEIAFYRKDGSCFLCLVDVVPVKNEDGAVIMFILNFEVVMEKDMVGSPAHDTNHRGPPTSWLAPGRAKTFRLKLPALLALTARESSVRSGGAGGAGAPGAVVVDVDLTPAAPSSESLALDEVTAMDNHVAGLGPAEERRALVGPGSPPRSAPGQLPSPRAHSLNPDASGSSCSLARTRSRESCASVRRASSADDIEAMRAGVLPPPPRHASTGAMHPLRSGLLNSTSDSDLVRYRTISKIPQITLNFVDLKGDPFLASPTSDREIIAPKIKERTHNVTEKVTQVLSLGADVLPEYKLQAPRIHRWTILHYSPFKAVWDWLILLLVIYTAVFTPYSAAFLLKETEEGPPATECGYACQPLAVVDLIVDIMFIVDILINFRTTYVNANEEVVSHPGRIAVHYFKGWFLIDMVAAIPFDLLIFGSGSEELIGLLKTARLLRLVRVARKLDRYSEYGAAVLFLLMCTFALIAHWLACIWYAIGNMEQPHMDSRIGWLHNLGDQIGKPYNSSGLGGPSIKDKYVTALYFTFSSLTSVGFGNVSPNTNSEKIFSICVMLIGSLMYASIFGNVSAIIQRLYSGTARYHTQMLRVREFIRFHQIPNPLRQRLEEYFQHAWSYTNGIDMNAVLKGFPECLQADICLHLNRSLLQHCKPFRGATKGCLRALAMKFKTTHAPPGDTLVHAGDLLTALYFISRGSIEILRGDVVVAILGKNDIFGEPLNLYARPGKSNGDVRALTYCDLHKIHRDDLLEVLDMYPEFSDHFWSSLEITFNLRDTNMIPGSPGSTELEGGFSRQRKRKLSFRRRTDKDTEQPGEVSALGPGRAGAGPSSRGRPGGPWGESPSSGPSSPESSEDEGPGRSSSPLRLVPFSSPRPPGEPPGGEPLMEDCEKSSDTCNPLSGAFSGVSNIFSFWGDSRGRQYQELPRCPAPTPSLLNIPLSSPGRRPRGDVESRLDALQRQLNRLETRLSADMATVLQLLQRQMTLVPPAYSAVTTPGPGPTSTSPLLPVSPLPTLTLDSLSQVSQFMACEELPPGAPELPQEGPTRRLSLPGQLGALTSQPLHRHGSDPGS

Going from CC(=O)N(CC(=O)Nc1nn(-c2ccccc2)nc1C(N)=O)Cc1ccccc1 to CCN(CC(=O)Nc1ccccc1OC)C(=O)c1cc(-c2ccccc2)nn1-c1ccccc1, the “hERG current change (%, negative = inhibition) at 1uM” value falls from 7.29% to -5.49%.

Going from CC(C)CC(NC(=O)C1CCC(C)CC1)C(=O)Nc1cccnc1 (centres unmarked) to CC1CC(C)CN(S(=O)(=O)c2ccc3c(c2)oc(=O)n3CC(=O)NCc2cccnc2)C1 (centres unmarked), the “hERG current change (%, negative = inhibition) at 1uM” value falls from 11.8% to 2.17%.

Going from Cc1cc(C)nc(NC(=O)c2ccc(Cl)c(Cl)c2)n1 to CC(=O)c1cnc(Nc2cccc(Cl)c2Cl)s1, the “hERG current change (%, negative = inhibition) at 1uM” value rises from -3.31% to 15.5%.

First: COc1ccc(N2CCN(CCNC(=O)CCNS(=O)(=O)c3cccs3)CC2)cc1
Second: CC(C)CNS(=O)(=O)c1ccc(CCC(=O)N2CCN(Cc3ccccc3)CC2)cc1
The “hERG current change (%, negative = inhibition) at 1uM” value of the first is higher: 8.95% for the first, -20.7% for the second.

First: Cc1cc(C)c(CN2CCC(CO)(CCOc3ccccc3)CC2)cc1C
Second: Cc1ccc(CN2CCN(c3ncccn3)CC2)c(C)c1
The “hERG current change (%, negative = inhibition) at 1uM” value of the first is lower: -0.659% for the first, 5.69% for the second.

Going from COc1ccc(CN(Cc2cc3ccc(C)cc3[nH]c2=O)Cc2nnnn2C2CCCC2)cc1 to COc1ccc(CNS(=O)(=O)c2ccc(-n3cnnn3)c(C)c2)cc1, the “hERG current change (%, negative = inhibition) at 1uM” value falls from 13.2% to -2.4%.

Compared with CCN1C(=O)CS/C1=N\S(=O)(=O)c1ccccc1, O=C1CCCN1S(=O)(=O)c1ccccc1 is higher in “hERG current change (%, negative = inhibition) at 1uM” value: -1.91% for the first, 5.5% for the second.

First: COc1cc(Cl)c(C)cc1NC(=O)COC(=O)C1=COCCO1
Second: COc1ccc2oc(C(=O)OCC(=O)NCc3ccco3)c(C)c2c1
The “hERG current change (%, negative = inhibition) at 1uM” value of the first is higher: 18.3% for the first, 2.69% for the second.

Compared with O=C(Nc1ccccc1)c1cccc(N2C(=O)C3C4C=CC(C5CC45)C3C2=O)c1 (centres unmarked), O=C(NNC1CC(=O)N(c2cccc(Cl)c2)C1=O)c1cccnc1 (centres unmarked) is higher in “hERG current change (%, negative = inhibition) at 1uM” value: -1.99% for the first, -1.03% for the second.

Compared with CC(c1ccccc1)N(CC(=O)NC1CCCCC1)S(=O)(=O)c1cccc(C(F)(F)F)c1 (centres unmarked), COc1ccccc1-c1cc(C(F)(F)F)nc(S(=O)(=O)CCCC(=O)N2CCCCC2C)n1 (centres unmarked) is higher in “hERG current change (%, negative = inhibition) at 1uM” value: -4.81% for the first, 2.61% for the second.

Going from CCCCNC(=O)C(=O)NC(C)CCc1ccccc1 (centres unmarked) to CCOC(=O)C1(CCc2ccccc2)CCN(C(=O)C2CCCO2)CC1 (centres unmarked), the “hERG current change (%, negative = inhibition) at 1uM” value falls from 7.5% to 5.8%.

First: CCOC(=O)c1cc(-c2ccc(/C=C3/C(=O)N(c4ccc(C(=O)O)cc4)N=C3C)o2)ccc1Cl
Second: CCOC(=O)c1cc(C(=O)NC(C)c2ccccc2)c(C)[nH]c1=O (centres unmarked)
The “hERG current change (%, negative = inhibition) at 1uM” value of the first is lower: 4.57% for the first, 7.73% for the second.

Compared with CNC(=O)/C(=C\c1ccc2c(c1)OCO2)NC(=O)c1ccc(Br)cc1, Cc1ccc(C(=O)N[C@H](C(=O)OCC(=O)c2ccc[nH]2)C(C)C)cc1 is higher in “hERG current change (%, negative = inhibition) at 1uM” value: -2.73% for the first, 14.1% for the second.

First: COc1ccc(-c2csc(NC(=O)CSc3nnnn3C)n2)c(OC)c1
Second: COc1ccccc1NC(=O)Nc1nc(CC(=O)Nc2ccc(OC)c(OC)c2)cs1
The “hERG current change (%, negative = inhibition) at 1uM” value of the first is higher: 7.91% for the first, 6.03% for the second.

Going from O=C1c2ccccc2C(=O)N1CCCSc1nc2ccccc2o1 to COCCCn1c(SCC(=O)c2ccccc2)nc2ccccc2c1=O, the “hERG current change (%, negative = inhibition) at 1uM” value rises from 15.4% to 17.7%.

Going from CCc1nccn1S(=O)(=O)c1ccc2ccc(C)cc2c1 to COc1ccc(S(=O)(=O)NCc2cccnc2)cc1, the “hERG current change (%, negative = inhibition) at 1uM” value rises from 9.91% to 14.4%.

Compared with CN(CC(=O)Nc1ccc(N2CCOCC2)cc1)CC(=O)Nc1cccc(C#N)c1, N#Cc1cccc(OC(=O)c2ccc3c(=O)n4c(nc3c2)CCC4)c1 is higher in “hERG current change (%, negative = inhibition) at 1uM” value: 11.4% for the first, 14.9% for the second.

Compared with CCCc1nc(-c2cc3cc(C)ccc3[nH]c2=O)no1, Cc1cccc(-n2c(Cc3cc(=O)[nH]c(=O)[nH]3)nnc2SCC(=O)N2CCCCC2)c1 is lower in “hERG current change (%, negative = inhibition) at 1uM” value: 9.86% for the first, 0.257% for the second.

First: CCOC(=O)C1CCN(C(=O)CSc2ccccc2Cl)CC1
Second: CCOC(=O)N1CCN(C(=O)C2CCCCC2)CC1
The “hERG current change (%, negative = inhibition) at 1uM” value of the first is higher: 6.31% for the first, 1.54% for the second.

Going from Fc1ccc(OCCOCCNCC2CCCO2)cc1 (centres unmarked) to CCc1ccc(OCCCC(=O)Nc2ccc(S(N)(=O)=O)cc2)cc1, the “hERG current change (%, negative = inhibition) at 1uM” value rises from 10.1% to 12%.

Compared with N#C/C(=C\c1ccc(C#N)cc1)C(=O)N1CCCC1, N=C1/C(=C\c2ccc(Br)o2)C(=O)N=C2SC(CC(=O)N3CCCCC3)=NN12 is higher in “hERG current change (%, negative = inhibition) at 1uM” value: 9.12% for the first, 11.5% for the second.

Compared with CN(C(=O)Cn1cc([N+](=O)[O-])ccc1=O)C1CCCCC1, CCOC(=O)N1CCC2(CC1)CC(=O)c1cc(O)ccc1O2 is lower in “hERG current change (%, negative = inhibition) at 1uM” value: 15.2% for the first, -0.519% for the second.

Compared with COc1ccc(OC)c(NC(=O)Cc2ccc(NC3=NC4CS(=O)(=O)CC4S3)cc2)c1 (centres unmarked), CCOc1ccccc1NC(=O)CCS(=O)(=O)c1cccc2nsnc12 is lower in “hERG current change (%, negative = inhibition) at 1uM” value: 14.4% for the first, 9.36% for the second.

Compared with CC1(C)Cc2c(c(N3CCCC3)nc3sc(C(=O)Nc4ccccc4)c(N)c23)CO1, COc1nnc(-c2ccc(N3CCOCC3)c(NC(=O)C3CCCCC3)c2)c2ccccc12 is lower in “hERG current change (%, negative = inhibition) at 1uM” value: 21.2% for the first, 4.38% for the second.

Compared with O=C(NC12CC3CC(CC(C3)C1)C2)N1CCN(c2ccccc2)CC1, COc1ccc2c(c1O)C(=O)c1ccccc1C2=O is higher in “hERG current change (%, negative = inhibition) at 1uM” value: 2.22% for the first, 6.18% for the second.

Compared with Cc1cccc(N(C)S(=O)(=O)c2cc3c(cc2C)n(C)c(=O)c(=O)n3C)c1, Cc1nn(CC(C)C)c(Cl)c1C(=O)N(c1ccc(Cl)cc1F)S(C)(=O)=O is higher in “hERG current change (%, negative = inhibition) at 1uM” value: -16% for the first, 8.01% for the second.

First: COc1ccccc1NC(=O)c1cc(-c2cc(OC)c(OC)c(OC)c2)nc2ccccc12
Second: CCOc1cc(/C=N/O)cc(Br)c1OC
The “hERG current change (%, negative = inhibition) at 1uM” value of the first is lower: 8.92% for the first, 11.8% for the second.

First: Cc1cc(Cl)c(OCCCCNC(C)(C)C)c(Br)c1.O=C(O)C(=O)O
Second: CC(C)(C)OC(=O)NCCCCCNC(=O)c1[nH]cnc1C(=O)Nc1nccs1
The “hERG current change (%, negative = inhibition) at 1uM” value of the first is lower: -9.56% for the first, 3.91% for the second.
